In publication PMC3738564:
No constants are given. Whether binding was seen depends on the method and setting. In cells and extracts the contact can be indirect. Some binding calls cover weakened binding; strength is not graded here.

Chains of the proteins cited; added tags and fusions are not shown.
UniProt Q8CC27: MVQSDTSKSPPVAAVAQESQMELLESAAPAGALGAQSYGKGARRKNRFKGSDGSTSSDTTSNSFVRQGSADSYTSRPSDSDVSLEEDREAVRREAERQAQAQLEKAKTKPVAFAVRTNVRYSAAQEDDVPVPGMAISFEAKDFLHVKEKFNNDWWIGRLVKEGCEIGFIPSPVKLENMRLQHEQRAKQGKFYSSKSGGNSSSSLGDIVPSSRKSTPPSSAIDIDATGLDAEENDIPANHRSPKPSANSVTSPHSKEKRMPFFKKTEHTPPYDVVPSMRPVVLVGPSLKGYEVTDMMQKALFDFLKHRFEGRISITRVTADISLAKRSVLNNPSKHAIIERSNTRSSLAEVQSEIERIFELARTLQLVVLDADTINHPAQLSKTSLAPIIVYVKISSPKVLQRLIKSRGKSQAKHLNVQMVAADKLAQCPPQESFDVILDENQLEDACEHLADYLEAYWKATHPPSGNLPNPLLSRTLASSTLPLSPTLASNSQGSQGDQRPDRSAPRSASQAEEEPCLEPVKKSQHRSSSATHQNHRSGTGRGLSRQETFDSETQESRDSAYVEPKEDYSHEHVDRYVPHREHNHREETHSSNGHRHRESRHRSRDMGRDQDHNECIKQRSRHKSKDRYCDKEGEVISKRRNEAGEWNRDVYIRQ
UniProt Q9Z0J4: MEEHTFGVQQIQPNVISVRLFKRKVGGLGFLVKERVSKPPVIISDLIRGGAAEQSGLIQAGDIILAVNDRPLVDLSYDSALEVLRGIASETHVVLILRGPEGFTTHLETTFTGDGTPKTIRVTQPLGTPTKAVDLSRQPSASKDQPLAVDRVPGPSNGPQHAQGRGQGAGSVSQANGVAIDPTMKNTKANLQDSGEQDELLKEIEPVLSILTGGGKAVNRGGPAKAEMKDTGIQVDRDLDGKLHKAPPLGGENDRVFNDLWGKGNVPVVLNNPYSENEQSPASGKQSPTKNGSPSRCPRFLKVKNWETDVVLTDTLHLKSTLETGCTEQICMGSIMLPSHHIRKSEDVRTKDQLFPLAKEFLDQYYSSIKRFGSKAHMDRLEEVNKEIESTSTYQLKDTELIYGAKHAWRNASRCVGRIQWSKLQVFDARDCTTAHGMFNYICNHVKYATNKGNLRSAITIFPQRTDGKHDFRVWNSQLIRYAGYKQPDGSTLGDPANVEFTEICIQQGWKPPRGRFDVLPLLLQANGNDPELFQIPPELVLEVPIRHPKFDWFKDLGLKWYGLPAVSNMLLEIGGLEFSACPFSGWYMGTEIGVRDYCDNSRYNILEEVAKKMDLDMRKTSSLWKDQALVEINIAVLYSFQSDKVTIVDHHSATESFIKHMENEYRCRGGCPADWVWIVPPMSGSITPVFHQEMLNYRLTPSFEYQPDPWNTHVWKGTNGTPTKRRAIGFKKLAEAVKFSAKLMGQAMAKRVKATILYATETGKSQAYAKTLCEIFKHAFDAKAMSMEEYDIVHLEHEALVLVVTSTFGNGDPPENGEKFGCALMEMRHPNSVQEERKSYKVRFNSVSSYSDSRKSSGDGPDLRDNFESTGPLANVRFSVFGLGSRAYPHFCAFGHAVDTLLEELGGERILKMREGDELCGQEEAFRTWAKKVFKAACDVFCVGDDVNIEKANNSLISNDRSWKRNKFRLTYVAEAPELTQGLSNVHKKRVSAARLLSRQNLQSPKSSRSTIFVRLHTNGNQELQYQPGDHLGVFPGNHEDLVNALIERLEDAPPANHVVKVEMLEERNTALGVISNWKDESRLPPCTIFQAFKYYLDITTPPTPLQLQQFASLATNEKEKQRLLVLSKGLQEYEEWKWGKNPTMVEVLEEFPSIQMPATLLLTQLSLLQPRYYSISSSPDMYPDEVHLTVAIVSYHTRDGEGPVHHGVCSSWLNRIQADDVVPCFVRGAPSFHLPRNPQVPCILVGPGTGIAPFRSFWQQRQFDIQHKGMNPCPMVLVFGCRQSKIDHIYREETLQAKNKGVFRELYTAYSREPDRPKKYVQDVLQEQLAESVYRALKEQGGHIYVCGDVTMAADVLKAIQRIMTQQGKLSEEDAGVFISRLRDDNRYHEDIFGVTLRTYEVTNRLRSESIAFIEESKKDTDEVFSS
UniProt E9Q6R7: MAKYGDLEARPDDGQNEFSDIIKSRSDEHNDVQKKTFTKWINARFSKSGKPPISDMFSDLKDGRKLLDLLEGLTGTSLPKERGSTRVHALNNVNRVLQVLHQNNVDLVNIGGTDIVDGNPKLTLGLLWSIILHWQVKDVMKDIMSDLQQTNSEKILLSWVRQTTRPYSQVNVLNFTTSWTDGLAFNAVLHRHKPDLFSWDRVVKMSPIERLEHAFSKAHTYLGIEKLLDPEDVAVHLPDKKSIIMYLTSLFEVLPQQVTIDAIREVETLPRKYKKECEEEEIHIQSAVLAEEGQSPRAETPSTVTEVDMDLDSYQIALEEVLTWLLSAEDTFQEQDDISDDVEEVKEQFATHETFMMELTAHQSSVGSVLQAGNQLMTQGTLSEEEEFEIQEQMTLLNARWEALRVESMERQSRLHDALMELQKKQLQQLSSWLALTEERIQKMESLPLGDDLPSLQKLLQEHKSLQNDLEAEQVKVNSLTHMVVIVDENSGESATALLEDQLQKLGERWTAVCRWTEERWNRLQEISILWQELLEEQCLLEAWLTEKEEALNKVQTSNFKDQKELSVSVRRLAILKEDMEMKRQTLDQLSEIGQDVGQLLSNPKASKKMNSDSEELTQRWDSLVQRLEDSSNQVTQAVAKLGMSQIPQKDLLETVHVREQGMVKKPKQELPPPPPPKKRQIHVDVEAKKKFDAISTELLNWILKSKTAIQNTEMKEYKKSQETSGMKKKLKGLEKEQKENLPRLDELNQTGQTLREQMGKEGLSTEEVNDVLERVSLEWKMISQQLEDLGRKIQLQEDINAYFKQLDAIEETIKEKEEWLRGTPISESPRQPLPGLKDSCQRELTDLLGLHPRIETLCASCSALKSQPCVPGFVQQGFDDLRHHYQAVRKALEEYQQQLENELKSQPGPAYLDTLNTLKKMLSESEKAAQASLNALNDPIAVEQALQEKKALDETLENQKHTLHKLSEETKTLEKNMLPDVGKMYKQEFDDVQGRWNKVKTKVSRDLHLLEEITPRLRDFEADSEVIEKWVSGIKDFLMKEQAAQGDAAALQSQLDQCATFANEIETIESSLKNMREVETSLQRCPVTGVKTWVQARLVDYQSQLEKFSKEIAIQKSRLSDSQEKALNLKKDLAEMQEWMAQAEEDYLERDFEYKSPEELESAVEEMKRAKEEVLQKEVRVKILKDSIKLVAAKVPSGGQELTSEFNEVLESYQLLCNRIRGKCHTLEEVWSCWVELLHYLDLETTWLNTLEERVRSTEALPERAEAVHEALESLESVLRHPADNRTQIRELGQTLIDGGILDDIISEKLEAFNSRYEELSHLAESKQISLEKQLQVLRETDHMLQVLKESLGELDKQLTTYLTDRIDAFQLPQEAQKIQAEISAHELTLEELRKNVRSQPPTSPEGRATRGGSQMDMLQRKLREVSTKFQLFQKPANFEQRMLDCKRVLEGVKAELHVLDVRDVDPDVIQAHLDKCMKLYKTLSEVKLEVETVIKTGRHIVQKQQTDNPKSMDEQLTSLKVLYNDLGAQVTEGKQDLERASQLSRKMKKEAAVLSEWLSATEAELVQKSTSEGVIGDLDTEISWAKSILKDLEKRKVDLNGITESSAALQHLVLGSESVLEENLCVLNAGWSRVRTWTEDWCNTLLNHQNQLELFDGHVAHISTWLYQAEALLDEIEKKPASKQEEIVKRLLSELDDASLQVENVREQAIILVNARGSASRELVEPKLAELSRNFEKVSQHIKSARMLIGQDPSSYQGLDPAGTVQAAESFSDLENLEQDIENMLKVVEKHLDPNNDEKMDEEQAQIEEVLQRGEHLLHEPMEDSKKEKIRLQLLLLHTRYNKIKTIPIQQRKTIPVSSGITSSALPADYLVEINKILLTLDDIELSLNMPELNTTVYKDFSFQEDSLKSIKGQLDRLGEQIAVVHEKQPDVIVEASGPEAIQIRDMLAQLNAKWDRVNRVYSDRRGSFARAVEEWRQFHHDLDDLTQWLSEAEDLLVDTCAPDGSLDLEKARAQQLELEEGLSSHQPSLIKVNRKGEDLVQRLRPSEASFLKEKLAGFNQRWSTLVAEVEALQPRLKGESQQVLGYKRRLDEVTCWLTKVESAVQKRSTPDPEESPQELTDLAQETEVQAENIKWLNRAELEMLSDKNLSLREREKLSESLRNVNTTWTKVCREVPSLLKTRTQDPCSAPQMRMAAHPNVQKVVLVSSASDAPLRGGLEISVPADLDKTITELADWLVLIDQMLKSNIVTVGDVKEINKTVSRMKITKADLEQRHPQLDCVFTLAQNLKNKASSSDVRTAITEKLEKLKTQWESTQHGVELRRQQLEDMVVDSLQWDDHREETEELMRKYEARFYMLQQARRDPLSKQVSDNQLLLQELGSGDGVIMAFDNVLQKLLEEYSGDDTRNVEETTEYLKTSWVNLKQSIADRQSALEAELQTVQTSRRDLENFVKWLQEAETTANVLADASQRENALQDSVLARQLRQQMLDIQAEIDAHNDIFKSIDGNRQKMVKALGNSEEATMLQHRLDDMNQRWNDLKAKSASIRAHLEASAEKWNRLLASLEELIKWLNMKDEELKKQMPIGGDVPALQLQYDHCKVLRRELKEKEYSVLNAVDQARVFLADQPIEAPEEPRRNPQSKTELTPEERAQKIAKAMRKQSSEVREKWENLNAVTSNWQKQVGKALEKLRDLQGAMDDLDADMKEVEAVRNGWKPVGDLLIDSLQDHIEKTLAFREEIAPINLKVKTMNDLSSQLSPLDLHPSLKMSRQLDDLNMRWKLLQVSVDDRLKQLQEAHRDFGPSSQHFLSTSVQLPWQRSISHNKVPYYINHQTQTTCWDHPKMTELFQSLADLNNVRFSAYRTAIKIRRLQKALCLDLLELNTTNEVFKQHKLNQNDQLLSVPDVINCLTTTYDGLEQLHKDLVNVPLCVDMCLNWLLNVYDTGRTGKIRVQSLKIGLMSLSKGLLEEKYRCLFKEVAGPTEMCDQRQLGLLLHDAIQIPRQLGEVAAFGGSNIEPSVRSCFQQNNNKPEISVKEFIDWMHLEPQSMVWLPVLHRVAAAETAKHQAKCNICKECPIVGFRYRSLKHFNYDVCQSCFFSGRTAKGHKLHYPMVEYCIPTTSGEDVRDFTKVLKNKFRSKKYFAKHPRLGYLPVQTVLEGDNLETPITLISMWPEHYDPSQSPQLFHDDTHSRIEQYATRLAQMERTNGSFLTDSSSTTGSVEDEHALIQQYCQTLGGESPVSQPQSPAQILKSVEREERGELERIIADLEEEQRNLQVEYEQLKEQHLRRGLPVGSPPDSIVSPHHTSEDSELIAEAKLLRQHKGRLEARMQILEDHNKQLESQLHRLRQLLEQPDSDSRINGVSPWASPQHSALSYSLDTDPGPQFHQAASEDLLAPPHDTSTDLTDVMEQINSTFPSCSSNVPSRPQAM

Experiments:
[1] = biological target: T1, β-dystroglycan (mouse (endogenous in skeletal muscle)) (UniProt Q62165); experiment: co-IP; β-dystroglycan precipitated with MANDAG2 on protein G beads from wild type mouse quadriceps lysate (1% digitonin, 0.05% NP-40; 1 mg protein); Western blot; also done on mdx and mdx/Utrn-/- lysates
T1 sequence: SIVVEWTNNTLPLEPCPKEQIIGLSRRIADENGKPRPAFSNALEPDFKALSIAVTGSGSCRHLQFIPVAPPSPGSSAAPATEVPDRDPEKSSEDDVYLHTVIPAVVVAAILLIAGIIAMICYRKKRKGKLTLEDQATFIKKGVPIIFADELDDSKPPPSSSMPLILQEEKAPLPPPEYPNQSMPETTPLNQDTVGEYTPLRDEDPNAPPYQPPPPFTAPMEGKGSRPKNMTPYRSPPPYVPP

[2] = biological target: β2-regulatory subunit of voltage gated calcium channels (Cavβ2) (mouse (endogenous in skeletal muscle)) (UniProt Q8CC27); experiment: co-IP; reverse immunoprecipitation with an antibody to Cavβ2 from wild type quadriceps lysate (1% digitonin, 0.05% NP-40); control antibody MW8; Western blot
[3] = biological target: T2, α-dystroglycan (mouse (endogenous in skeletal muscle)) (UniProt Q62165); experiment: pull-down; α-dystroglycan held by its carbohydrates on wheat germ agglutinin agarose beads; wild type mouse skeletal muscle solubilised in PBS pH 7.5 with 0.5% Triton X-100; 4 °C overnight; Western blot
T2 sequence (chain, highly glycosylated; carbohydrate moieties bound by wheat germ agglutinin): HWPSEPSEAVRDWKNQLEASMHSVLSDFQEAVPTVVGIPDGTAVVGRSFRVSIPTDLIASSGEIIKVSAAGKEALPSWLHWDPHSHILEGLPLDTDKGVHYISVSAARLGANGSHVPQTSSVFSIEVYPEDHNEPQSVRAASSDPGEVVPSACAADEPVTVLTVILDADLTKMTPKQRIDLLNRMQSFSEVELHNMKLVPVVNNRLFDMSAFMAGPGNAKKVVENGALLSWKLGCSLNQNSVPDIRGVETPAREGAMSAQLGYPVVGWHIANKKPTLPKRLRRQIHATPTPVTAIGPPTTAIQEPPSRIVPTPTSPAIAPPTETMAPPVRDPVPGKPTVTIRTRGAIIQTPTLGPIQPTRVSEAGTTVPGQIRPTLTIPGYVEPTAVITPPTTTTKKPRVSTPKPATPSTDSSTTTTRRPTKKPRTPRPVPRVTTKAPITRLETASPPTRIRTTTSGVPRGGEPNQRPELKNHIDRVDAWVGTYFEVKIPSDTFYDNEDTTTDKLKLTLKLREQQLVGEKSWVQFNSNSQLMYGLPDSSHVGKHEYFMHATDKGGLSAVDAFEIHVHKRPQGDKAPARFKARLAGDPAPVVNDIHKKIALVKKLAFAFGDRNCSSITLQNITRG

[4] = biological target: T1, β-dystroglycan (mouse (endogenous in skeletal muscle)); experiment: co-IP; β-dystroglycan precipitated with MANDAG2 from mdx (dystrophin-deficient) mouse quadriceps lysate (1% digitonin, 0.05% NP-40); Western blot
[5] = biological target: T3, Polymerase I and transcript release factor (Cavin-1) (mouse) (UniProt O54724); experiment: co-IP; reverse immunoprecipitation with an antibody to Cavin-1 from wild type quadriceps lysate (1% digitonin, 0.05% NP-40); control Rabbit-anti-Goat IgG; Western blot
T3 sequence: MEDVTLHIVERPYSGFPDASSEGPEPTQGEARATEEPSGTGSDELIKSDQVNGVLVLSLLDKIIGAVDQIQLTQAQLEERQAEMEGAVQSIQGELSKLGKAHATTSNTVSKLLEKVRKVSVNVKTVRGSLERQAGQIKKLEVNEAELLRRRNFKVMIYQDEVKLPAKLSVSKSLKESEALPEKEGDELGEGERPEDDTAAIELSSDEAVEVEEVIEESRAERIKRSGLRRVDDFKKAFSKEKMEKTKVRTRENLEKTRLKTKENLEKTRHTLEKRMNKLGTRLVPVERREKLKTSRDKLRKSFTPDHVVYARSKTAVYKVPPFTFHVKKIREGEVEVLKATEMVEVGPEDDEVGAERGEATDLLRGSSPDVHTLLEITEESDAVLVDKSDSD

[6] = biological target: full length (427 kDa) dystrophin (mouse (endogenous in skeletal muscle)) (UniProt P11531); experiment: co-IP; dystrophin precipitated with MANDYS1 on protein G beads from wild type mouse quadriceps lysate (1% digitonin, 0.05% NP-40); Western blot

Row | binding [1] | binding [2] | binding [3] | binding [5] | binding [6] | Substance | binding [4]
1 | binds | no binding | binds |  |  | full length (427 kDa) dystrophin (from UniProt P11531 1-3678) | 
2 | binds |  |  |  |  | neuronal nitric oxide synthase (from UniProt Q9Z0J4 1-1429) (enzyme) | no binding (condition: in mdx muscle (no dystrophin))
3 | binds | no binding |  | no binding |  | utrophin (from UniProt E9Q6R7 1-3430) | 
4 | binds |  |  | no binding | no binding | β2-regulatory subunit of voltage gated calcium channels (Cavβ2) (from UniProt Q8CC27 1-655) | 
